In the antibiotic and cytotoxicity screens of Wong et al. (2023):
The other results are listed elsewhere or left out.

Key:
HSkMC = human skeletal muscle cells; test: cytotoxicity call (relative viability < 0.9); conditions: 10 µM
HepG2 = test: cytotoxicity call (relative viability < 0.9); conditions: 10 µM
S. aureus RN4220 = test: growth inhibition call (relative growth <= 0.2); conditions: 50 µM

C[N+]12CCC(CC1)C(OC(=O)C(O)(c1ccccc1)c1ccccc1)C2.[Br-] (centres undefined)
cytotoxicity call (HSkMC): inactive | cytotoxicity call (HepG2): inactive | growth inhibition call (S. aureus RN4220): inactive

COc1cc2c(cc1OC)C(C)NCC2 (centres undefined)
cytotoxicity call (HSkMC): inactive | cytotoxicity call (HepG2): inactive | growth inhibition call (S. aureus RN4220): inactive

COc1ccccc1C1(N)CC1
cytotoxicity call (HSkMC): inactive | cytotoxicity call (HepG2): inactive | growth inhibition call (S. aureus RN4220): inactive

C[C@H](CO)N1C[C@H](C)[C@H](CN(C)C(=O)Oc2ccc3ccccc3c2)OCc2cn(nn2)CCCC1=O
cytotoxicity call (HSkMC): inactive | cytotoxicity call (HepG2): inactive | growth inhibition call (S. aureus RN4220): inactive

C=CCc1ccc(OC)cc1
cytotoxicity call (HSkMC): inactive | cytotoxicity call (HepG2): active | growth inhibition call (S. aureus RN4220): inactive

C[C@H]1CN([C@@H](C)CO)C(=O)CCCn2nncc2CO[C@@H]1CN(C)C(=O)Oc1cccc2ccccc12
cytotoxicity call (HSkMC): inactive | cytotoxicity call (HepG2): inactive | growth inhibition call (S. aureus RN4220): inactive

CCN1C[C@H]2CN(Cc3nccn3C)C[C@H]2C1=O
cytotoxicity call (HSkMC): inactive | cytotoxicity call (HepG2): inactive | growth inhibition call (S. aureus RN4220): inactive

C[C@@]1(C(=O)O)[C@H]2CC[C@@H](O2)[C@@]1(C)C(=O)O
cytotoxicity call (HSkMC): active | cytotoxicity call (HepG2): active | growth inhibition call (S. aureus RN4220): inactive

COc1ccc(C(=O)O[C@H]2CC[C@@]3(C)[C@@H]4CC[C@H]5[C@]6(O)C[C@H](O)[C@@]7(O)[C@@H](CN8C[C@@H](C)CC[C@H]8[C@@]7(C)O)[C@]6(O)C[C@@]53O[C@]24O)cc1OC
cytotoxicity call (HSkMC): inactive | cytotoxicity call (HepG2): inactive | growth inhibition call (S. aureus RN4220): inactive

Br.CN1C2CC(OC(=O)C(CO)c3ccccc3)CC1C(O)C2 (racemic)
cytotoxicity call (HSkMC): inactive | cytotoxicity call (HepG2): inactive | growth inhibition call (S. aureus RN4220): inactive

O[C@H]1[C@H]2[C@H](O)CCCN2C[C@H]1O
cytotoxicity call (HSkMC): inactive | cytotoxicity call (HepG2): inactive | growth inhibition call (S. aureus RN4220): inactive

Cl.NCC(=O)c1ccccc1
cytotoxicity call (HSkMC): inactive | cytotoxicity call (HepG2): inactive | growth inhibition call (S. aureus RN4220): inactive

Clc1cc2c(cc1Cl)Oc1cc(Cl)c(Cl)cc1O2
cytotoxicity call (HSkMC): inactive | cytotoxicity call (HepG2): inactive | growth inhibition call (S. aureus RN4220): inactive

NC1(c2ccccc2F)CCCC1
cytotoxicity call (HSkMC): inactive | cytotoxicity call (HepG2): inactive | growth inhibition call (S. aureus RN4220): inactive

CC(C)[C@@]1(NC(=O)[C@H]2C[C@@H]3c4cccc5[nH]cc(c45)C[C@H]3N(C)C2)O[C@@]2(O)[C@H]3CCCN3C(=O)[C@@H](Cc3ccccc3)N2C1=O
cytotoxicity call (HSkMC): inactive | cytotoxicity call (HepG2): inactive | growth inhibition call (S. aureus RN4220): inactive

COC(=O)C[C@@H](CN)c1ccc(Cl)cc1
cytotoxicity call (HSkMC): inactive | cytotoxicity call (HepG2): inactive | growth inhibition call (S. aureus RN4220): inactive

Cc1cnc(C(=O)N2C[C@H]3CNC[C@H]3C2)cn1
cytotoxicity call (HSkMC): inactive | cytotoxicity call (HepG2): inactive | growth inhibition call (S. aureus RN4220): inactive

Clc1ccc(Cl)cc1
cytotoxicity call (HSkMC): inactive | cytotoxicity call (HepG2): inactive | growth inhibition call (S. aureus RN4220): inactive

CCC1(c2ccc(N)cc2)CCC(=O)NC1=O (centres undefined)
cytotoxicity call (HSkMC): inactive | cytotoxicity call (HepG2): inactive | growth inhibition call (S. aureus RN4220): inactive

C[C@@]12C(=O)OC(=O)[C@]1(C)[C@H]1CC[C@@H]2O1
cytotoxicity call (HSkMC): active | cytotoxicity call (HepG2): active | growth inhibition call (S. aureus RN4220): inactive

CCC(COC(=O)c1cc(OC)c(OC)c(OC)c1)(c1ccccc1)N(C)C.O=C(O)C=CC(=O)O (centres undefined)
cytotoxicity call (HSkMC): inactive | cytotoxicity call (HepG2): inactive | growth inhibition call (S. aureus RN4220): inactive

CN1CC[C@]2(CCCO2)C1
cytotoxicity call (HSkMC): inactive | cytotoxicity call (HepG2): inactive | growth inhibition call (S. aureus RN4220): inactive

O=C1NC(=O)C(=O)C(=O)N1
cytotoxicity call (HSkMC): inactive | cytotoxicity call (HepG2): inactive | growth inhibition call (S. aureus RN4220): inactive

Cc1ccc(OC(=O)N(C)C[C@H]2OCc3ccccc3-c3c(n(C)c4ccccc34)C(=O)N([C@@H](C)CO)C[C@@H]2C)cc1
cytotoxicity call (HSkMC): inactive | cytotoxicity call (HepG2): active | growth inhibition call (S. aureus RN4220): inactive

CC(=O)N[C@H]1C(=O)NC(=S)N(c2ccccc2)C1=O
cytotoxicity call (HSkMC): inactive | cytotoxicity call (HepG2): inactive | growth inhibition call (S. aureus RN4220): inactive

CC(=O)OC1CCC2(C)C(=CCC3C4CCC(=O)C4(C)CCC32)C1 (centres undefined)
cytotoxicity call (HSkMC): inactive | cytotoxicity call (HepG2): inactive | growth inhibition call (S. aureus RN4220): inactive

O=C1C=CC(=O)C=C1
cytotoxicity call (HSkMC): inactive | cytotoxicity call (HepG2): inactive | growth inhibition call (S. aureus RN4220): inactive

O[C@H]1[C@H](O)[C@@H](O)CO[C@H]1NCCc1ccccc1
cytotoxicity call (HSkMC): inactive | cytotoxicity call (HepG2): inactive | growth inhibition call (S. aureus RN4220): inactive

CCN(Cc1ccc(Cl)nc1)C(=C[N+](=O)[O-])NC
cytotoxicity call (HSkMC): inactive | cytotoxicity call (HepG2): inactive | growth inhibition call (S. aureus RN4220): inactive

NC1=NC(=O)C2(CCNCC2)N1
cytotoxicity call (HSkMC): inactive | cytotoxicity call (HepG2): inactive | growth inhibition call (S. aureus RN4220): inactive

C[C@@H]1CN([C@@H](C)CO)C(=O)CCCn2nncc2CO[C@H]1CN(C)C(=O)Oc1cccc2ccccc12
cytotoxicity call (HSkMC): inactive | cytotoxicity call (HepG2): inactive | growth inhibition call (S. aureus RN4220): inactive

CC1=C2C(=COC(C)C2C)C(O)=C(C(=O)O)C1=O (centres undefined)
cytotoxicity call (HSkMC): inactive | cytotoxicity call (HepG2): inactive | growth inhibition call (S. aureus RN4220): inactive

COC1C(O)C(C)OC(OC2CCC3(C=O)C(CCC4C3CCC3(C)C(C5=CC(=O)OC5)CCC43O)C2)C1O (centres undefined)
cytotoxicity call (HSkMC): active | cytotoxicity call (HepG2): active | growth inhibition call (S. aureus RN4220): inactive

CN1[C@@H](CO)[C@@H]2c3ccccc3NC[C@@H]21
cytotoxicity call (HSkMC): inactive | cytotoxicity call (HepG2): inactive | growth inhibition call (S. aureus RN4220): inactive

CC1CC(C)C(=O)C(C(O)CC2CC(=O)NC(=O)C2)C1 (centres undefined)
cytotoxicity call (HSkMC): inactive | cytotoxicity call (HepG2): active | growth inhibition call (S. aureus RN4220): inactive

Fc1ccc(Oc2ccnc3cc(Cl)cc(Cl)c23)cc1
cytotoxicity call (HSkMC): inactive | cytotoxicity call (HepG2): inactive | growth inhibition call (S. aureus RN4220): inactive

CCN(CC)CCOC(=O)C(O)(c1ccccc1)c1ccccc1.Cl
cytotoxicity call (HSkMC): inactive | cytotoxicity call (HepG2): inactive | growth inhibition call (S. aureus RN4220): inactive

CC1=C[C@H]2[C@]3(O)[C@H](C=C(CO)C[C@]2(O)C1=O)[C@H]1C(C)(C)[C@@]1(O)[C@H](O)[C@@H]3C
cytotoxicity call (HSkMC): inactive | cytotoxicity call (HepG2): inactive | growth inhibition call (S. aureus RN4220): inactive
